Self-cleavage data for 56 variants are collected here from the RNAGym collection of RNA variant scans (doi:10.7554/elife.90254).

Sequences and labels used below:
B1: LINE1-mini (parent)
chain: GGCAGAGCUCAACACAGCGUGGCAAAGUGGCUGUGGCUAGACUGCC

Read counts are not given, so values of variants with three or more changes are uncertain.

Variants of B1 are the subject of this data set. Briefly: self-cleavage, relative activity (ratio to wild type); higher = more cleavage; in vitro, sequencing; the parent is a self-cleaving ribozyme.
For the variant GGCAGAGAUCAAAACAGCGUGGUAAAGUGGCUGUGGCUAGUCUGCC [C8A C13A C23U A41U], the self-cleavage turned out to be 0.13. GGCAGAGAUGAACACAGAGUGGCAAAGUGGCUGUGGCUAUACUUCU [C8A C10G C18A G40U G44U C46U]: the self-cleavage amounted to 0.01.

On to GGCAGAGAUCAACACUGCGUGGCAAAGUGGCUUUGGCUAGACUGCC [C8A A16U G33U], for which the self-cleavage was 0.11. Next, GGCAGAGAUAAACAGAGCGUGCCAAACUGGCUGUGGCUACACUGCC [C8A C10A C15G G22C G27C G40C]: 0.03. Next, GGCAGAGAUCAACACAGCGUGGCUAAGUGGCUGUGGCUAGAUUGCC [C8A A24U C42U]: 0.16; GGCAGAGAUCAACACAGCGUGGCAAAGUGGCUGUGGCUAGCUUGCC [C8A A41C C42U]: 0.23. Next, GGCAGAGAUGAACACAUCGUGGCAAAGUGGCUGUGGCUAGACUGCU [C8A C10G G17U C46U]: 0.02. Consider GGCAGAGAUCAACACAGCGUGGCAUAGUGGCUGUGGCUAGACUGCG [C8A A25U C46G], for which the self-cleavage turned out to be 0.25.

Regarding GGCAGAGAUCAACACAGCGUGGCAAUGUGGCUGGGGCUAGACUGCC [C8A A26U U34G], the self-cleavage worked out at 0.24. Next, GGCAGAGAUCAAAACAGCGUGGCAAAGUGACUGUGGCUAUACUGCC [C8A C13A G30A G40U]: 0.08; GGCAGAGAUCAACACAGCGUGGCAAUGUGGCUGUGGAUAGACUGCC [C8A A26U C37A]: 0.05; GGCAGAGAUGAACACAGCGUGGCAAAGUGGCUGUGGCUAGAUUGCC [C8A C10G C42U]: 0.01. For the variant GGCAGAGAUCAACACAGCGUGGCAAUGUCGCUGUGGCUAGUCUGCC [C8A A26U G29C A41U], the self-cleavage worked out at 0.03. Next, GGCAGAGAUGAACAGAGCGUUGCAAAGUUGCUGUGGCUAGACUGCC [C8A C10G C15G G21U G29U]: 0.01.

GGCAGAGAUCAACACAGCGUGGCAAUGUGGCUGUGGCUAUACUGCC [C8A A26U G40U]: the self-cleavage was 0.25.

On to GGCAGAGAUCAACACAGCGUGGCAAAGUGGCUGUGGCUGGACUGCA [C8A A39G C46A], for which the self-cleavage turned out to be 0.14. Next, GGCAGAGAUCAAAACAGCGUGGCAAAGUGGCUCUGGCUAGACUGCC [C8A C13A G33C]: 0.14; GGCAGAGAUAAACACAGCGUGGCAAAGUGGCUGUAGCUAGACUGCC [C8A C10A G35A]: 0.05. As to GGCAGAGAUCAAGACAACGAGGCAAAGUGGCUGUUGCUAGACUGCU [C8A C13G G17A U20A G35U C46U], the self-cleavage stood at 0.05. The same measure for GGCAGAGAUCAACACAGCGUGGCAACGUAGCUGUGGCUAGACUGCC [C8A A26C G29A]: 0.53; for GGCAGAGAUCAAAACAGCGUGGCAAAGUUGCUGUGGCUAGACUGCC [C8A C13A G29U]: 0.13. The same measure for GGCAGAGAUGAACACAGCGUAGCAAAGUGGCUGUGGCUAGACUGCC [C8A C10G G21A]: 0.01. Next, GGCAGAGAUCAACACUGCGUGGCACAGUGGGUGUGGCUAGACUGCC [C8A A16U A25C C31G]: 0; GGCAGAGAUCAACACAGCGUGGCGAAGUGGCUGUGGCUAGAAUGCC [C8A A24G C42A]: 0.22.

Regarding GGCAGAGAUGAACAAAACGUGCCAAAGUGUAUGUGGCUAGACUGGC [C8A C10G C15A G17A G22C G30U C31A C45G], the self-cleavage stood at 0.02.

Consider GGCAGAGAUCAAGACAGCGUGGCAAAGUGGGUGUGUUUAGACUGCC [C8A C13G C31G G36U C37U], for which the self-cleavage was 0.22. Next, GGCAGAGAUCAACUCAGCGCGGCAAAGUGGCUGUGGCUAGACAGCC [C8A A14U U20C U43A]: 0.14; GGCAGAGAUCAACACUGCGUGGGAAAGUGGCGGUGGCUAGACUGCC [C8A A16U C23G U32G]: 0.31. The same measure for GGCAGAGAUGAACACAGCGGGGCAAAGUUGCUGUGGCUAGACUGCC [C8A C10G U20G G29U]: 0.05; for GGCAGAGAUCAACACUGCGUGGUAAAGUGGCUGUGGCUAGACUGCC [C8A A16U C23U]: 0.12; for GGCAGAGAUGAACACAGCGUGGCAAAGUGGCUGUGGGUAGACUGAC [C8A C10G C37G C45A]: 0.01.

With GGCAGAGAUUAACACUGUGUGGCAAAGUGGCUGUGGCUAGACUGCC [C8A C10U A16U C18U], the self-cleavage amounted to 0.04. Next, GGCAGAGAUCAAAAGAGCGUGGCAAAGUGGCUGUGGCUAGACUGCC [C8A C13A C15G]: 0.22; GGCAGAGAUCAACACAGCGUGGCUAAGUGGCUCUGGCUAGACUUCC [C8A A24U G33C G44U]: 0.2.

For GGCAGAGAUCAACACAGCGUGGCAGCGUGGCUGUGGCUAGACUGCC [C8A A25G A26C], the self-cleavage turned out to be 0.21. Next, GGCAGAGAUUAACACAGCGCGGCAAAGUGGCACUGGCUAGAGUGCC [C8A C10U U20C U32A G33C C42G]: 0.04; GGCAGAGAUCAAAACCGCGUGGCAAAGUGGCUGUGGCUACACUGCC [C8A C13A A16C G40C]: 0.25; GGCAGAGAUGAUCAAAGGGUGGCAAAGUGGCUGUGGACAGACUGCC [C8A C10G A12U C15A C18G C37A U38C]: 0.01. The same measure for GGCAGAGAUCAACACAGCGUGGCAUAGUGUCUGUGGCUAGACUUCC [C8A A25U G30U G44U]: 0.78. With GGCAGAGAUAAACACAGCGUGGCAAAGUGGCUGUGGCUAGUCUGCC [C8A C10A A41U], the self-cleavage came out at 0.02. The same measure for GGCAGAGAUCAACACUGCGUGGCAAAGUGGCUGGGGCUAGACUGCC [C8A A16U U34G]: 0; for GGCAGAGAUCAACACAGCGUGGCACAGUGGCUGUGGCUAAACUGCC [C8A A25C G40A]: 0.06; for GGCAGAGAUCAACACAGCGUGGCAAGGUGGCUGUGACUAGACUGAC [C8A A26G G36A C45A]: 0.18. The same measure for GGCAGAGAUCAACACAGCGUGGCAGAGUGGCUGUGGCUAGAGUGCC [C8A A25G C42G]: 0.19. Next, GGCAGAGAUAAACACAUCGUGGCAAAGUGGCUGUGGCUAGACUGCC [C8A C10A G17U]: 0.04.

Regarding GGCAGAGAUCAACACAGCGUGGCAAGGUGGCGUUGGCUAGACUGCC [C8A A26G U32G G33U], the self-cleavage amounted to 0.11.

Consider GGCAGAGAUCAACACAGCGUGGCAAUGUGGUUGUGGCUAGACUGCC [C8A A26U C31U], for which the self-cleavage stood at 0.15. The same measure for GGCAGAGAUAAACACAGCAUGGCAAAGUGGCUAUGGCUAGGCUGCC [C8A C10A G19A G33A A41G]: 0.01; for GGCAGAGAUAAACACAGGGUGGCAAAGUAGCUGUGGCUACACUGCC [C8A C10A C18G G29A G40C]: 0.01; for GGCAGAGAUCAACACAGCGUGGCACAGUGGCUGUGGCUAGACUGCA [C8A A25C C46A]: 0.11. Next, GGCAGAGAUCAACACAGCGUGGCAGAGUUGGUGUGGCUAGACUGCC [C8A A25G G29U C31G]: 0.12. The same measure for GGCAGAGAUCAAACCAGUAUGGUAGAGUCGCUGUGGCUACACUGCC [C8A C13A A14C C18U G19A C23U A25G G29C G40C]: 0.08; for GGCAGAGAUCAACACUGAGUGGCAAAGUGGCUCUGGUUAGACUGCC [C8A A16U C18A G33C C37U]: 0.05; for GGCAGAGAUGAACACAGCGUGGCUAAGAGGCUGUGUCUAGACUGCC [C8A C10G A24U U28A G36U]: 0. Turning to GGCAGAGAUGAACACAGCGUGGCAAAGUCGCUGUGGCUAGACUGCC [C8A C10G G29C], the self-cleavage is 0.02. Next, GGCAGAGAUGAAAACAGUGUGGCAAAGUGGCUGUGGCUAGACUGCC [C8A C10G C13A C18U]: 0.01.
